Legend:
[1] = Reactivity with lactose under accelerated storage (60° C. at 75% RH); details: for % Initial: 80% lactose/5% H2O, particle sizes reduced with mortar and pestle
[2] = Excipient compatibility of DCL by differential scanning calorimetry (DSC); details: DCL dry blended with STARCH 1500, 80% excipient to 20% drug

Reactivity with lactose ([1]; similar conditions (60° C./75% RH), including samples with 5% water) | SMILES | DSC behavior, drug/excipient interaction [2] | % Initial ([1]; 2 weeks 60° C./75% RH) | % Initial ([1]; 4 weeks 60° C./75% RH)
negligible | CCOC(=O)N1CCC(=C2c3ccc(Cl)cc3CCc3cccnc32)CC1 [Loratadine, loratadine] | – | – | –
– | Clc1ccc2c(c1)CCc1cccnc1C2=C1CCNCC1 [DCL, 8-chloro-6,11-dihydro-11-(4-piperidylidene)-5H-benzo[5,6]cyclohepta[1,2-b]pyridine] | does not appear to be a DCL/STARCH 1500® interaction | 49.07% | 48.80%
